The campaign covered roughly 310,000 compounds. About 14,000 (4.5%) showed an effect of 50% or more. Effects have a minus sign here. Some of the results follow.
Target: human ether-à-go-go-related gene (hERG) potassium channel (human, UniProt Q12809)
Experiment: primary screen, population patch clamp on CHO cells stably expressing hERG
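Further: peak tail current of the secondary pulse compared with the same well before compound.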

human ether-à-go-go-related gene (hERG) potassium channel, sequence (Q12809 whole entry, looked up): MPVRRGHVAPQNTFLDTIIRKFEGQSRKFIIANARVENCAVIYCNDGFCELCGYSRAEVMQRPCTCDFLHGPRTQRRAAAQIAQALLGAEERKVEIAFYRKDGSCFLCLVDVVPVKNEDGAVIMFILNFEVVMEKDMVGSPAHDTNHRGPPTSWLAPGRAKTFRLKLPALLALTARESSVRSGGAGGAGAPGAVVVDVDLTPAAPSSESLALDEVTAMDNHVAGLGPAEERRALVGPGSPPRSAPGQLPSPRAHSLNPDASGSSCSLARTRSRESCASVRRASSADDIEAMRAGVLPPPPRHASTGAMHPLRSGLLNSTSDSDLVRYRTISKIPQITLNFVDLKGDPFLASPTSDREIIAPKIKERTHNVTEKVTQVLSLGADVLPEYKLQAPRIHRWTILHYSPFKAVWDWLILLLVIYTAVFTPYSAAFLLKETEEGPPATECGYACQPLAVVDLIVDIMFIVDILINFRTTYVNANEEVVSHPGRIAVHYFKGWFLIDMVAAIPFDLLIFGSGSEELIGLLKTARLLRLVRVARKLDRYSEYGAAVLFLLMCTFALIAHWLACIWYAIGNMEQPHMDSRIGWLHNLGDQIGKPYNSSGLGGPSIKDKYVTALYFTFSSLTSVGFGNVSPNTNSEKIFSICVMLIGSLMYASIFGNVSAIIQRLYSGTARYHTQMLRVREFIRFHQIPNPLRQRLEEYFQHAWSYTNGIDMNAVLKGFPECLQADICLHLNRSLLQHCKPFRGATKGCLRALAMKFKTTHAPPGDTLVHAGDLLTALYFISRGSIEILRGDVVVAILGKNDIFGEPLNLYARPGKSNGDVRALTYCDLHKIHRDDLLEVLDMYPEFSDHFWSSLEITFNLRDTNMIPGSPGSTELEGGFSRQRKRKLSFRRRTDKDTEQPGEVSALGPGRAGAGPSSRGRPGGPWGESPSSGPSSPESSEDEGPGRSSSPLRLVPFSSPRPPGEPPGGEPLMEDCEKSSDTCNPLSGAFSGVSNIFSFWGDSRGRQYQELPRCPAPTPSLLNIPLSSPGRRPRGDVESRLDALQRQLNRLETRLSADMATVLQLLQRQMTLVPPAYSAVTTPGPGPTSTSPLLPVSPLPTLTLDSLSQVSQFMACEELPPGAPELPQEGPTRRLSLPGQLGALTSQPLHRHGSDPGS

Row | SMILES | hERG current change (%, negative = inhibition) at 10uM
1 | CC(C)Cc1nnc(NC(=O)CSc2nc(-c3ccccc3)cc(=O)[nH]2)s1 | 3.94%
2 | COc1cccc2c(=O)n(CC(=O)Nc3ccccc3)ccc12 | 0.612%
3 | CCN1C(=O)C(NC(C)=O)c2cc(Br)ccc21 (stereo not shown) | 0.0677%
4 | COc1ccc(NC(=O)NNC(=O)c2ccc3ccccc3c2)cc1OC | 7.67%
5 | CN1CCN(Cc2cc(Cl)c3cccnc3c2OC(=O)c2cccs2)CC1 | -53.3%
6 | COc1ccccc1C(=O)NCCC(=O)NC1=NCCS1 | 6.65%
7 | CCc1ccc(-c2cc(C(F)(F)F)n3nc(C(=O)Nc4c(C)nn(Cc5ccc(F)cc5)c4C)cc3n2)s1 | 0.54%
8 | CCN(CC)C(=O)CC(c1ccc(F)cc1)c1ccc(OC)cc1 (stereo not shown) | -25.1%
9 | O=C(Nc1ccc(Cl)cn1)c1ccccc1F | -1.25%
10 | C=CCNC(=O)c1ccc(-c2nc(-c3ccccc3)cs2)cc1 | 1.85%
11 | Cc1[nH]nc2c1C1(CCC(c3ccccc3)CC1)C(C#N)=C(N)O2 (stereo not shown) | 6.12%
12 | Cc1cc(Cl)c(S(=O)(=O)NCC2CCCO2)cc1OCC(=O)NC1CCCCC1 (stereo not shown) | -24.8%
13 | COc1ccc(NC(=O)c2ccc(NCCCN3CCOCC3)c([N+](=O)[O-])c2)cc1 | -3.71%
14 | CCCc1[nH]nc2c1C(CCC)C(C#N)=C(N)O2 (stereo not shown) | -11.6%
15 | COC(=O)CN1C(=O)N/C(=C/c2cc(Cl)c(OC)c(OC)c2)C1=O | 4.35%
16 | CCCc1cc(C(=O)N2CCCC(N3CCN(c4ccccc4F)CC3)C2)n(C)n1 (stereo not shown) | -20.9%
17 | CC(=O)O[C@]1(c2ccccc2)CCN(C)[C@H]2CCCC[C@@H]21.Cl | 12.4%
18 | CC(C)CCN(C(=O)COc1ccc(C#N)cc1)c1c(N)n(Cc2ccccc2)c(=O)[nH]c1=O | 20.6%
19 | CCOC(=O)C1(c2ccccc2)CCN(CCC(=O)Nc2ccc(C(=O)OC)cc2)CC1 | -24.2%
20 | Cc1ccc(S(=O)(=O)N(CC(=O)N/N=C/c2ccco2)Cc2ccccc2)cc1 | -20.7%
21 | COc1ccc(Oc2nnc(C)c3ccccc23)cc1 | -3.54%
22 | CCOC(=O)c1ccc(-n2c(CC)nc3ccccc3c2=O)cc1 | 15.1%
23 | O=C(c1ccccc1)c1ccc2nc(-c3ccco3)c(-c3ccco3)nc2c1 | 5.9%
24 | CCOc1cc(C(=S)N2CCCCC2)ccc1OCC(=O)NCc1ccccc1 | -31.2%
25 | O=c1c(Cc2ccc(F)cc2)c(O)ccn1Cc1ccc(Cl)cc1Cl | 6.08%
26 | Cl.O=C(c1ccco1)N(Cc1ccccc1)Cc1ccccn1 | 29.5%
27 | CCCC12CN3CC(C)(CN(C1)C3c1ccc(OC(C)C)cc1)C2=O (stereo not shown) | -16.9%
28 | Cc1nn(-c2ccccc2)c(C)c1C(=O)OCC(=O)N(C)c1c(N)n(Cc2ccccc2)c(=O)[nH]c1=O | -3.66%

Row | SMILES | hERG current change (%, negative = inhibition) at 10uM
29 | CN(C)C=O.O=C(O)c1cccc(-n2c(/C=C/c3cccc([N+](=O)[O-])c3)nc3ccccc3c2=O)c1 | 15.1%
30 | O=C(CN1C(=O)c2ccccc2S1(=O)=O)NCCc1ccccc1 | -5.1%
31 | CC(Oc1ccc2c3c(c(=O)oc2c1)CCCC3)C(=O)NCc1cccnc1 (stereo not shown) | 10.4%
32 | CCNC(=O)NC(=O)C(C)OC(=O)c1c(C)nn(Cc2ccccc2)c1Cl (stereo not shown) | -0.451%
33 | O=C(C1=C[C@H](c2ccc3c(c2)OCO3)C[C@H](OCc2ccc(CO)cc2)O1)N1CCOCC1 | -6.6%
34 | Cc1cccc(CN2CCC(CNC(=O)Cn3ncc4c([nH]c5ccccc54)c3=O)CC2)c1 | -23.1%
35 | COc1ccccc1CN1C(=S)SC(C)(C)C1NO (stereo not shown) | -15.3%
36 | Cc1cc(OCCCn2cnc3ccccc3c2=O)ccc1[N+](=O)[O-] | -15.5%
37 | CC1SCCN1S(=O)(=O)c1ccc2ccccc2c1 (stereo not shown) | -5.42%
38 | N/C(=N\OC(=O)c1cccs1)c1cccnc1 | 18.3%
39 | O=C(COC(=O)/C=C/c1ccc(Cl)cc1)NC(=O)NCc1ccccc1 | 7.5%
40 | CC(=O)Nc1nc(C)nc(-c2ccccc2)c1C(C)=O | 2.06%
41 | O=C(CSc1nnc(SCc2cccc3ccccc23)s1)c1ccc2c(c1)OCO2 | 18.4%
42 | COc1ccc(OCc2cc(C(=O)NC3CCOCC3)no2)c2ccccc12 | 10.5%
43 | COc1ccccc1S(=O)Cc1ccc(C(=O)NC2CCCC2)o1 (stereo not shown) | 0.941%
44 | COc1ccc(OC)c(N/C(C)=C/C(=O)c2ccccc2)c1 | -7.86%
45 | Cc1cc(C)n(NC(=S)NC2CCCC2)c(=O)c1C#N | 13.5%
46 | C=CC(=C)CC(NC)c1ccccc1 (stereo not shown) | 8.72%
47 | CCC1(C)N(O)C(C)(C)C(c2ccc(F)cc2)=[N+]1[O-] (stereo not shown) | -5.99%
48 | COc1ccc(NC(=O)C2CCN(S(=O)(=O)c3ccc(OC)c(OC)c3)CC2)c(OC)c1 | -16.1%
49 | O=C(NC(=O)c1c(F)cccc1F)Nc1cc(Cl)c(F)c(Cl)c1F | 13.2%
50 | Cc1ccc(C)c(N2CCN(C(=O)CCC(=O)N3CCOc4ccc(Cl)cc43)CC2)c1 | -18.9%
51 | Cc1cc(C)n(CC(=O)N2CCCC(N3CCN(c4ccccc4C)CC3)C2)n1 (stereo not shown) | -14%
52 | CC(C)(C)c1ccc(S(=O)(=O)NCc2ccc(C(=O)N3CCCC3)cc2)cc1 | 11.6%
53 | CCOC(=O)C(CCCCC(NC(C)=O)(C(=O)OCC)C(=O)OCC)(NC(C)=O)C(=O)OCC | 8.24%
54 | Cc1sc(NC(=O)c2ccccc2)c(C(c2ccc(Cl)cc2)N2CCN(CCO)CC2)c1C (stereo not shown) | -4.47%
55 | CCCN(CC1CC1)C(=O)CSc1ncnc2sccc12 | -21.2%

Reference: article PMC4336329 (PLoS ONE, 2015)
